Measurements published in PubChem BioAssay AID1745853 (National Center for Advancing Translational Sciences (NCATS), 2022).
Some of the results follow. Further columns of the screen follow, without active or inactive calls.

How the values were obtained:
Assay in all cases: Primary Screen for Target Class Profiling of Small Molecule Inhibitors of Methyltransferases
[1] = biological target: Glycine N-methyltransferase (Homo sapiens) (UniProt Q14749); details: purified enzyme, MTase-Glo SAH luminescence; measured here: GNMT inhibition; at 40 µM; stronger effect = lower value
Outline: (§1)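 Each enzyme was assayed with SAM and its substrate. SAH formation detected by MTase-Glo luminescence; single-point 40 uM screen[…].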

[2] = biological target: Guanidinoacetate N-methyltransferase (Homo sapiens) (UniProt Q14353); details: purified enzyme, MTase-Glo SAH luminescence; measured here: GAMT inhibition; at 40 µM; stronger effect = lower value
Outline: as §1

[3] = biological target: Histamine N-methyltransferase (Homo sapiens) (UniProt P50135); details: purified enzyme, MTase-Glo SAH luminescence; measured here: HNMT inhibition; at 40 µM; stronger effect = lower value
Outline: as §1

[4] = biological target: Nicotinamide N-methyltransferase (Homo sapiens) (UniProt P40261); details: purified enzyme, MTase-Glo SAH luminescence; measured here: NNMT inhibition; at 40 µM; stronger effect = lower value
Outline: as §1

[5] = biological target: Phenylethanolamine N-methyltransferase (Homo sapiens) (UniProt P11086); details: purified enzyme, MTase-Glo SAH luminescence; measured here: PNMT inhibition; at 40 µM; stronger effect = lower value
Outline: as §1
% is scaled to controls: 0 for no effect and ±100 for the full control effect.

SMILES	activity change, negative = inhibition [1] [%]	activity change, negative = inhibition [2] [%]	activity change, negative = inhibition [3] [%]	activity change, negative = inhibition [4] [%]	activity change, negative = inhibition [5] [%]
CCOc1ccc(-c2cc3n(n2)CC(C)(C(=O)NC2CCCCC2)N(C2CCCCC2)C3=O)cc1 (stereo not given)	-3.99	4.43	2.13	-1.67	-1.72
Cc1ccc(O)cc1Nc1ccnc(Nc2cccc(C(N)=O)c2)n1	-16.8	-25.3	-18.7	-38.7	-11.8
Cc1cccc(C#Cc2cc(F)cc(C#N)c2)n1	-12.8	-7.81	-3.27	-21.7	-5.3
O=P(O)(O)C(Cl)(Cl)P(=O)(O)O	-7.33	6.59	-0.99	-2.78	7.07
C[C@@H]1O[C@@H](O[C@H]2[C@H](OC(=O)[C@]34CCC(C)(C)C[C@H]3C3=CCC5[C@@]6(C)CC[C@H](O[C@@H]7O[C@H](CO[C@@H]8OC[C@H](O)[C@H](O)[C@H]8O)[C@@H](O)[C@H](O)[C@H]7O)C(C)(C)C6CC[C@@]5(C)[C@]3(C)C[C@H]4O)OC[C@@H](O)[C@@H]2O)[C@H](O)[C@H](O)[C@H]1O[C@@H]1OC[C@H](O)[C@H](O[C@@H]2OC[C@@H](O)[C@H](O)[C@H]2O)[C@H]1O (stereo not given in full)	0	12.9	2.5	3.73	8.91
COc1cc(NC(=O)CSc2nnc3n(CCC(C)C)c(=O)c4ccccc4n23)cc(OC)c1	-2.06	0.088	4.11	-1.05	0.921
O=C(NCc1ccc2c(c1)OCO2)c1ccc2c(=O)[nH]c3c(C(=O)NCC4CCCO4)sc(=S)n3c2c1 (stereo not given)	-4.88	0.08	12.1	-9.99	-11.1
OC[C@H]1O[C@@H](OC(CCCCc2ccc(O)cc2)CCc2ccc(O)cc2)[C@H](O[C@@H]2OC[C@](O)(CO)[C@H]2O)[C@@H](O)[C@@H]1O (stereo not given in full)	0	7.94	5.16	-6.1	5.6
CCC(C(=O)N1CCC2(CCC(=O)N(Cc3ccccn3)C2)CC1)n1cccn1 (stereo not given)	-2.54	-4.59	-1.64	-6.18	-19.4
COc1ccccc1CN1C(=O)c2cc3occc3n2CC1(C)C(=O)NC1CCCCC1 (stereo not given)	2.93	4.35	6.95	10.9	4.4
C=C(C)C1Cc2cc(C(=O)OC3OC(CO)C(O)C(O)C3O)ccc2O1 (stereo not given)	0	-4.09	6.73	-18.5	-12.8
Cc1ccc(-c2cc(O)c3c(c2)CNCCO3)cc1	-6.33	-4.78	-6.19	-7.4	-2.11
CC1(C(=O)NC2CCCCC2)Cn2c(cc3ccccc32)C(=O)N1Cc1ccc(F)cc1 (stereo not given)	5.55	5.58	-0.735	4.22	-1.12
O=C(CCc1nc2ccccc2s1)N1CCC(c2noc(C3CC3)n2)C1 (stereo not given)	-5.06	-2.61	-1.86	-13.5	-4.33
COCC(=O)NC1CCC12CCN(Cc1ccc(C)o1)CC2 (stereo not given)	-5.06	-4.85	-0.046	-4.91	-2.98
CC1(O)CC(O)C2(O)C=COC(O[C@@H]3O[C@H](CO)[C@@H](O)[C@H](O)[C@H]3O)C12 (stereo not given in full)	-4.72	1.74	3.43	-9.55	-16.1
C/C=C/C(=O)OC1/C=C/C(O)C(OC(C)=O)CCC(=O)OC1C (stereo not given)	3.88	6.96	10.1	-7.12	2.21
CCc1noc(-c2cn(C3CCCN(C(=O)c4ccc(C(C)(C)C)cc4)C3)nn2)n1 (stereo not given)	-6.61	-5.89	-2.88	-18	-2.81
